Assay results published in EP4806900A2, “RAS INHIBITORS” (Revolution Medicines, Inc., priority 2019, dated 2021).
pIC50: −log10 of the molar value. Like-named read-outs stand apart in the source and are kept apart here. Some entries share one result that the patent states for a list of compounds. Blank lines part the entries; values can stand above or below the molecule they belong to.

Tests used:
Type in all cases: biochemical
[1] = target: K-Ras G12C (Homo sapiens, UniProt P01116+P62937, G12C)
[2] = target: K-Ras G13C (Homo sapiens, UniProt P01116+P62937, G13C); assay: Ras-RAF disruption TR-FRET/MOA assay, K-Ras G13C; conditions: Table 8; read-out: KRAS G13C FRET data, IC50
[3] = target: NRAS G12C (Homo sapiens, UniProt P01111+P62937, G12C); assay: Ras-RAF disruption TR-FRET/MOA assay, NRAS G12C; conditions: Table 14. NRAS G12C FRET data
Chain of NRAS G12C (P01111 whole entry G12C): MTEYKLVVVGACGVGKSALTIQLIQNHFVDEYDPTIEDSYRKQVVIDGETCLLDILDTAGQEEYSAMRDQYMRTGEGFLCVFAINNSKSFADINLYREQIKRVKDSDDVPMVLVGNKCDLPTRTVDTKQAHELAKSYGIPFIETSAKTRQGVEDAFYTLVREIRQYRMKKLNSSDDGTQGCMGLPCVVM
Chain of NRAS G12C (P62937 whole entry): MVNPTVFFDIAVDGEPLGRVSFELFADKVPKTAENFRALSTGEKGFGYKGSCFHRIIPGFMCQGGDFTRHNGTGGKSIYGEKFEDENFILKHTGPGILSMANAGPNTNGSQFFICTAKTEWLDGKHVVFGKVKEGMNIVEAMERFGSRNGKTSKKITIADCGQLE

[4] = target: NRAS Q61K (Homo sapiens, UniProt P01111+P62937, Q61K); assay: Ras-RAF disruption TR-FRET/MOA assay, NRAS Q61K; conditions: Table 16. NRAS Q61K FRET data
Chain of NRAS Q61K (P01111 whole entry Q61K): as the sequence (P01111 whole entry G12C) above, with C12G, Q61K counted along it
Chain of NRAS Q61K (P62937 whole entry): as the sequence (P62937 whole entry) above

[5] = target: NRAS Q61R (Homo sapiens, UniProt P01111+P62937, Q61R); assay: Ras-RAF disruption TR-FRET/MOA assay, NRAS Q61R; conditions: Table 15. NRAS Q61R FRET data
Chain of NRAS Q61R (P01111 whole entry Q61R): as the sequence (P01111 whole entry G12C) above, with C12G, Q61R counted along it
Chain of NRAS Q61R (P62937 whole entry): as the sequence (P62937 whole entry) above

[6] = target: KRAS G13D (Homo sapiens, UniProt P01116+P62937, G13D); assay: Ras-RAF disruption TR-FRET/MOA assay, KRAS G13D; conditions: Table 12. KRAS G13D FRET data
[7] = target: NRAS WT (Homo sapiens, UniProt P01111+P62937); assay: Ras-RAF disruption TR-FRET/MOA assay, NRAS WT; conditions: Table 17. NRAS WT FRET data
Chain of NRAS WT (P01111 whole entry): as the sequence (P01111 whole entry G12C) above, with C12G counted along it
Chain of NRAS WT (P62937 whole entry): as the sequence (P62937 whole entry) above

[8] = Table 11; read-out: KRAS G12C FRET data, IC50

Molecule: C=CS(=O)(=O)N1CC[C@H](C(=O)N(C)[C@H](C(=O)N[C@H]2Cc3cc(O)cc(c3)-c3ccc4c(c3)c(c(-c3cccnc3[C@H](C)OC)n4CC)CC(C)(C)COC(=O)[C@@H]3CCCN(N3)C2=O)C(C)C)C1 (atropisomer, axis not shown) [Compound A132]
- pIC50 [1, 8]: > 8.00
- pIC50 [2]: > 8.00
- pIC50 [3]: > 8.00

Molecule: C=CC(=O)N1CC[C@H](C(=O)N(C)[C@H](C(=O)N[C@H]2Cc3nc(cs3)-c3ccc4c(n3)c(c(-c3cccnc3[C@H](C)OC)n4CC)CC(C)(C)COC(=O)[C@@H]3CCCN(N3)C2=O)C(C)C)C1 [Compound A347, (2S)-N-[(7S,13S)-21-ethyl-20-{2-[(1S)-1-methoxyethyl]pyridin-3-yl}-17,17-dimethyl-8,14-dioxo-15-oxa-4-thia-9,21,25,27,28-pentaazapentacyclo[17.5.2.1^{2,5}.1^{9,13}.0^{22,26}]octacosa-1(25),2,5(28),19,22(26),23-hexaen-7-yl]-3-methyl-2-{N-methyl-1-[(3S)-1-(prop-2-enoyl)pyrrolidin-3-yl]formamido}butanamide]
- pIC50 [1, 8]: 6.00 to 7.00
- pIC50 [3]: 6.00 to 7.00
- pIC50 [6]: < 5.00

Molecule: C=CC(=O)Nc1ncc(C(=O)N(C)[C@H](C(=O)N[C@H]2Cc3cccc(c3)-c3ccc4c(c3)c(c(-c3cccnc3[C@H](C)OC)n4CC)CC(C)(C)COC(=O)[C@@H]3CCCN(N3)C2=O)C(C)C)n1C (atropisomer, axis not shown) [Compound A474]
- pIC50 [1, 8]: > 8.00
- pIC50 [2]: > 8.00
- pIC50 [3]: > 8.00

Molecule: CCn1c(-c2cccnc2C(C)OC)c2c3cc(ccc31)-c1cccc(c1)CC(NC(=O)C(C(C)C)N1CCC3(CCN(C(=O)C#CC(C)(C)N4CCC4)C3)C1=O)C(=O)N1CCCC(N1)C(=O)OCC(C)(C)C2 (centres unmarked) [Compound A365]
- pIC50 ([1]; read-out: KRAS G12C FRET data, IC50; Table 11): > 8.00
- pIC50 [4]: 5.00 to 6.00
- pIC50 [3]: > 8.00
- pIC50 [5]: 5.00 to 6.00
- pIC50 [7]: 5.00 to 6.00
- pIC50 [6]: 5.00 to 6.00

Molecule: CCn1c(-c2cccnc2[C@H](C)OC)c2c3cc(ccc31)-c1cccc(c1)C[C@H](NC(=O)[C@H](C(C)C)N(C)C(=O)[C@H]1CCN(C(=O)C#C[C@@H]3COCCN3C)C1)C(=O)N1CCC[C@H](N1)C(=O)OCC(C)(C)C2 [Compound A528]
- pIC50 [1, 8]: 7.00 to 8.00
- pIC50 [3]: 7.00 to 8.00
- pIC50 [6]: < 5.00

Molecule: CCn1c(-c2cccnc2[C@H](C)OC)c2c3cc(ccc31)N1CCO[C@@H](C[C@H](NC(=O)[C@H](C(C)C)N(C)C(=O)C3(F)CCN(C(=O)/C=C/CN(C)C)CC3)C(=O)N3CCC[C@H](N3)C(=O)OCC(C)(C)C2)C1 (atropisomer, axis not shown) [Compound A645]
- pIC50 [1, 8]: 7.00 to 8.00
- pIC50 [4]: < 5.00
- pIC50 [3]: 7.00 to 8.00
- pIC50 [5]: < 5.00

Molecule: CO[C@@H](C)c1ncccc1-c1c2c3cc(ccc3n1CC(F)(F)F)-c1cc(F)cc(c1)C[C@H](NC(=O)[C@@H](COC1CN(C(=O)C#CC(C)(C)N(C)C)C1)C(C)C)C(=O)N1CCC[C@H](N1)C(=O)OCC(C)(C)C2 (atropisomer, axis not shown) [Compound A348]
- pIC50 [1, 8]: > 8.00
- pIC50 [4]: < 5.00
- pIC50 [3]: > 8.00
- pIC50 [5]: < 5.00
- pIC50 [6]: < 5.00

Molecule: C=CC(=O)N1CC(OC[C@H](C(=O)N[C@H]2C[C@H]3CN(CCO3)c3ccc4c(c3)c(c(-c3cccnc3[C@H](C)OC)n4CC(F)(F)F)CC(C)(C)COC(=O)[C@@H]3CCCN(N3)C2=O)C(C)C)C1 (atropisomer, axis not shown) [Compound A723]
- pIC50 [1, 8]: 6.00 to 7.00
- pIC50 [4]: < 5.00
- pIC50 [3]: 6.00 to 7.00
- pIC50 [5]: < 5.00
- pIC50 [6]: < 5.00

Molecule: CO[C@@H](C)c1ncccc1-c1c2c3cc(ccc3n1CC(F)(F)F)-c1cccc(c1)C[C@H](NC(=O)[C@@H](COC1CN(C(=O)C#CC(C)(C)N(C)C)C1)C(C)C)C(=O)N1CCC[C@H](N1)C(=O)OCC(C)(C)C2 (atropisomer, axis not shown) [Compound A376]
- pIC50 [1, 8]: > 8.00
- pIC50 [4]: < 5.00
- pIC50 [3]: > 8.00
- pIC50 [5]: < 5.00
- pIC50 [6]: < 5.00

Next, values leading:

- pIC50 [1, 8]: > 8.00
- pIC50 [4]: < 5.00
- pIC50 [3]: > 8.00
- pIC50 [5]: < 5.00
- pIC50 [6]: < 5.00
Molecule: CO[C@@H](C)c1ncccc1-c1c2c3cc(ccc3n1CC(F)(F)F)N1CCO[C@@H](C[C@H](NC(=O)[C@@H](COC3CN(C(=O)C#CC(C)(C)N(C)C)C3)C(C)C)C(=O)N3CCC[C@H](N3)C(=O)OCC(C)(C)C2)C1 (atropisomer, axis not shown) [Compound A375]

- pIC50 [1, 8]: 6.00 to 7.00
- pIC50 [4]: 6.00 to 7.00
- pIC50 [3]: 6.00 to 7.00
- pIC50 [5]: 6.00 to 7.00
- pIC50 [6]: 6.00 to 7.00
Molecule: C=CC(=O)N1CCOC2(CCN(C(=O)N(C)[C@H](C(=O)N[C@H]3Cc4cc(CF)cc(c4)-c4ccc5c(c4)c(c(-c4cccnc4[C@H](C)OC)n5CC(F)(F)F)CC(C)(C)COC(=O)[C@@H]4CCCN(N4)C3=O)C(C)C)CC2)C1 (atropisomer, axis not shown) [Compound A605]

- pIC50 [4]: 5.00 to 6.00
- pIC50 [5]: 5.00 to 6.00
- pIC50 [6]: 5.00 to 6.00
Molecule: C=CC(=O)N1CCOC2(CCN(C(=O)N(C)[C@H](C(=O)N[C@H]3C[C@H]4CN(CCO4)c4ccc5c(c4)c(c(-c4cccnc4[C@H](C)OC)n5CC)CC(C)(C)COC(=O)[C@@H]4CCCN(N4)C3=O)C(C)C)CC2)C1 [Compound A564]

- pIC50 [4]: 5.00 to 6.00
- pIC50 [5]: 5.00 to 6.00
- pIC50 [7]: 5.00 to 6.00
- pIC50 [6]: < 5.00
Molecule: (2S)-N-[(8S,14S,20P)-22-ethyl-21-{4-[(1S)-1-methoxyethyl]pyridin-3-yl}-18,18-dimethyl-9,15-dioxo-16-oxa-10,22,28-triazapentacyclo[18.5.2.1^2,^6.1^10,^14.0^23,^27]nonacosa-1(26),2,4,6(29),20,23(27),24-heptaen-8-yl]-3-methyl-2-{N-methyl-1-[(3S)-1-(prop-2-enoyl)pyrrolidin-3-yl]formamido}butanamide [Compound A115]

- pIC50 [1, 8]: 7.00 to 8.00
- pIC50 [4]: 5.00 to 6.00
- pIC50 [3]: 7.00 to 8.00
- pIC50 [5]: 5.00 to 6.00
- pIC50 [6]: 5.00 to 6.00
Molecule: C=CC(=O)N1CCC(F)(C(=O)N(C)[C@H](C(=O)N[C@H]2C[C@H]3CN(CCO3)c3ccc4c(c3)c(c(-c3cccnc3[C@H](C)OC)n4CC)CC(C)(C)COC(=O)[C@@H]3CCCN(N3)C2=O)C(C)C)CC1 (atropisomer, axis not shown) [Compound A722, 1-acryloyl-N-((2S)-1-(((6^3S,4S)-1^1-ethyl-1^2-(2-((S)-1-methoxyethyl)pyridin-3-yl)-10,10-dimethyl-5,7-dioxo-6^1,6^2,6^3,6^4,6^5,6^6-hexahydro-1^1H-8-oxa-2(4,2)-morpholina-1(5,3)-indola-6(1,3)-pyridazinacycloundecaphane-4-yl)amino)-3-methyl-1-oxobutan-2-yl)-4-fluoro-N-methylpiperidine-4-carboxamide]

- pIC50 [1, 8]: > 8.00
- pIC50 [4]: 5.00 to 6.00
- pIC50 [3]: > 8.00
- pIC50 [5]: 5.00 to 6.00
- pIC50 [6]: 5.00 to 6.00
Molecule: CCn1c(-c2cccnc2[C@H](C)OC)c2c3cc(ccc31)N1CCO[C@@H](C[C@H](NC(=O)[C@H](C(C)C)N(C)C(=O)C3(F)CCN(C(=O)C#CC(C)(C)N(C)C)CC3)C(=O)N3CCC[C@H](N3)C(=O)OCC(C)(C)C2)C1 (atropisomer, axis not shown) [Compound A647, 1-(4-(dimethylamino)-4-methylpent-2-ynoyl)-N-((2S)-1-(((2^2S,6^3S,4S)-1^1-ethyl-1^2-(2-((S)-1-methoxyethyl)pyridin-3-yl)-10,10-dimethyl-5,7-dioxo-6^1,6^2,6^3,6^4,6^5,6^6-hexahydro-1^1H-8-oxa-2(4,2)-morpholina-1(5,3)-indola-6(1,3)-pyridazinacycloundecaphane-4-yl)amino)-3-methyl-1-oxobutan-2-yl)-4-fluoro-N-methylpiperidine-4-carboxamide]

- pIC50 [1, 8]: 6.00 to 7.00
- pIC50 [4]: < 5.00
- pIC50 [3]: 6.00 to 7.00
- pIC50 [5]: < 5.00
- pIC50 [6]: < 5.00
Molecule: C=CC(=O)N1CC[C@H](C(=O)N(C)[C@H](C(=O)N[C@H]2C[C@H]3CN(CCO3)c3ccc4c(c3)c(c(-c3cccnc3[C@H](C)OC)n4CC)CC(C)(C)COC(=O)[C@@H]3CCCN(N3)C2=O)C(C)C)C1 (atropisomer, axis not shown) [Compound A378]

- pIC50 [1, 8]: > 8.00
- pIC50 [4]: < 5.00
- pIC50 [3]: > 8.00
- pIC50 [5]: < 5.00
- pIC50 [7]: < 5.00
- pIC50 [6]: < 5.00
Molecule: (2R)-2-(((1-(4-(dimethylamino)-4-methylpent-2-ynoyl)azetidin-3-yl)oxy)methyl)-N-((6^3S,4S)-1^1-ethyl-1^2-(2-((S)-1-methoxyethyl)pyridin-3-yl)-10,10-dimethyl-5,7-dioxo-6^1,6^2,6^3,6^4,6^5,6^6-hexahydro-1^1H-8-oxa-1(5,3)-indola-6(1,3)-pyridazina-2(1,3)-benzenacycloundecaphane-4-yl)-3-methylbutanamide [Compound A316]

- pIC50 [4]: 6.00 to 7.00
- pIC50 [5]: 6.00 to 7.00
- pIC50 [7]: 6.00 to 7.00
Molecule: C=CC(=O)N1CC[C@H](C(=O)N(C)[C@H](C(=O)N[C@H]2Cc3cc(O)cc(c3)-c3ccc4c(C(C)(C)C#N)c(-c5cccnc5)n(c4c3)CC(C)(C)COC(=O)[C@@H]3CCCN(N3)C2=O)C(C)C)C1 [Compound A148]

- pIC50 [1, 8]: > 8.00
- pIC50 [4]: 5.00 to 6.00
- pIC50 [3]: > 8.00
- pIC50 [5]: 5.00 to 6.00
- pIC50 [6]: 5.00 to 6.00
Molecule: C=CC(=O)Nc1cnc(OC[C@H](C(=O)N[C@H]2Cc3cccc(c3)-c3ccc4c(c3)c(c(-c3cccnc3[C@H](C)OC)n4CC)CC(C)(C)COC(=O)[C@@H]3CCCN(N3)C2=O)C(C)C)n1C (atropisomer, axis not shown) [Compound A600]
